Results from the supplement of paper PMC11417369.
± gives the standard deviation of the averaged measurements. The list shows a part of the results.

What follows are sequences tested on PfAP2-LT AP2 domain (GST-tagged) (assay: gcPBM binding intensity (ln(normalized median fluorescence intensity)); higher = stronger DNA binding).
Procedure, shortened: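 DNA-binding domains from P. falciparum, fused to GST and produced in E. coli, were put on an Agilent 4 × 180k double-stranded probe array for 1 h in 1× PBS holding 1% milk, 0.2 mg/ml BSA, 0.5% salmon testes DNA and 0.03% Triton X-100. Probes were primer-extended, 36 bp long and drawn from intergenic genomic regions, with negative controls included. After Alexa488 anti-GST antibody detection and a 488 nm scan, binding intensity was set as the highest Masliner-normalised natural-log median intensity across replicate spots of either probe orientation.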

Sequence	gcPBM binding intensity (ln)
TTTTTTTTTTTTCATTGTACTCTTAAAAATTCAACT [XGTACX_site3154]	8.49 ± 0.42
TAAAATGTACAGGACGCACACACATATATATATATA [CACACA_site3673]	9.92 ± 0.42
AACAACAACTAATATGCACACATTTAAAAACAAAAT [CACACA_site2440]	9.18 ± 0.38
ATTAAAATTTAAAATACACACACATATATATAATAT [CACACA_site8612]	9.28 ± 0.29
TATTTTTTTTTTTTTTTACACACTATAGGGAAAAAA [CACACA_site8583]	8.42 ± 0.34
AAACCTTTACATCGTTTGCACTATATTGATATGTGT [GTGCAC_site9686]	9.26 ± 0.42
CATACATACATACATACACACACATATATATATATA [CACACA_site8593]	9.87 ± 0.59
CTTCCTATATTTTACTGTACTTTTTTTTTTTTTTTT [XGTACX_site4016]	8.96 ± 0.61
TTTTTTAACAAAAATAAAACATAACTGAATTAAAAG [GTGCAC_negctrl_site244]	8.24 ± 0.48
ACGAATTAAATTTGCTGTACCAAAAAGAAAACAATA [XGTACX_site5511]	8.78 ± 0.54
GCTTCTTAATATCATACACACATAGATATATTTATA [CACACA_site5676]	8.94 ± 0.41
GGAGACTTTGTATTGGGTACGTATTTCAATGCATGT [XGTACX_site1596]	8.96 ± 0.35
AACAAATGTTAAATGTTTAAGGAGAAAATAAAGACA [CACACA_negctrl_site1163]	8.73 ± 0.47
GAAAACATAAAAATATGTACTTAAAATATATTTTGT [XGTACX_site868]	8.66 ± 0.41
AAAACGAAACATCTGTGTATAAGTCTATATTATTAT [XGTACX_negctrl_site301]	8.85 ± 0.38
TTTATGTGTATTAAGTGTACACATATAGTGTATTTT [XGTACX_site999]	8.91 ± 0.49
ATATATAAGGAAAAAAGTACTTATATTTTTTTTTTG [XGTACX_site1909]	8.39 ± 0.49
AAATAAAGCATGTGCTGTACAAACGAAATATTTAAG [XGTACX_site3146]	9.05 ± 0.54
TGTCATGATACATACACACACATACCCATACCCATA [CACACA_site5211]	9.74 ± 0.26
ATATTTATATATAGTAGTACTTTCAATAATTTAAAT [XGTACX_site7276]	8.46 ± 0.33
AATACAAGAACTGACACACATACATACTACATTTTA [CACACA_site2829]	9.25 ± 0.45
TCTTAAAATATATAGGTGCAAAAAAAAAAAAAAAAA	8.48 ± 0.43

Sequence	gcPBM binding intensity (ln)
TATGATATTTATATGCGTACTGAAGTATGCCTATTT [XGTACX_site6133]	9.12 ± 0.48
AAAAAATTAAAAATACGTACATATATACATATATAT [XGTACX_site4621]	8.74 ± 0.4
AAAGAAAGAAGACACACACACATATATAAATATCAA [CACACA_site7715]	9.88 ± 0.23
ATCAGTGATTAGGTTATATATAAAAATGAACTAATA [GTGCAC_negctrl_site647]	8.65 ± 0.49
ATATTCATGTTGATATGTACTTATTCTATATTGAAT [XGTACX_site8347]	8.81 ± 0.31
TATATATATATATATATACACACTTGTGCAGAATAT [CACACA_site2216]	10 ± 0.18
AGATTAAAATAATATAAACACACATATACTTTTTTC [CACACA_site8085]	8.77 ± 0.45
ATAATTAAAAAAAATTGTACATATAAATAGAAGATT [XGTACX_site230]	8.76 ± 0.45
AAAAAAAAAAGAATAGCACACACACCGATATAAATA [CACACA_site8111]	9.71 ± 0.37
TAGGTATGCTCTCAATGTACATAAAATAATTTTACT [XGTACX_site6556]	8.64 ± 0.38
TGTTTTTATTTATTCTGTACTGAAGAGAGTTATATA [XGTACX_site8859]	8.53 ± 0.42
TTTAAATACAGACATACACACATACACCCACATATA [CACACA_site8078]	9.61 ± 0.15
TAAGAAATAAATAGTACACACATAGACACAGACACA [CACACA_site4934]	9.65 ± 0.29
GTATATGAGAAAAAAAGTACATGCACAAAATGTATA [XGTACX_site6441]	9 ± 0.49
ATATAAATTTTTTATGAACACACAAATACAGACACT [CACACA_site8848]	9.06 ± 0.26
GATATTCTATAAAAAAGTACAAATATTTTAAAAAAT [XGTACX_site2177]	8.48 ± 0.49
AGCATTAATTATTTCACACATATATATATATATATA [CACACA_site4889]	9.58 ± 0.11
TAAATCCTTTACAACACACACACAAAAAAAAAAAAA [CACACA_site643]	9.35 ± 0.38
TTTTTTTTTTTTTTTTTTTATGTATACATATTTATA [TGCATGCA_negctrl_site234]	8.54 ± 0.45
TCATTTTAAAAAAATAGTACTTTAAGAAACTTTTAT [XGTACX_site602]	8.04 ± 0.5
TTTTTTTTTTTTTTCTGTACTTAAAAAGGGGGAGAA [XGTACX_site3799]	8.96 ± 0.13
CAAACATGTTCAAATTGTACAATAGAAAATATATAT [XGTACX_site1557]	8.9 ± 0.44
